These results are taken from a collection of fitness landscapes (doi:10.1016/j.celrep.2020.107928).

Over roughly 81,000 sequences, “one-hybrid fitness for binding NBS DNA” has its median near -0.1; the highest 2% begin near 0.36. The list shows a part of the results.

To fix the notation:
B1: Caulobacter ParB omega fusion; a variant is named by its letters at X, in order, B8GW30 (parent)
chain: MESVVVGEPGMSEGRRGLGRGLSALLGEVDAAPAQAPGEQLGGSREAPIEILQRNPDQPRRTFREEDLEDLSNSIREKGVLQPILVRPSPDTAGEYQIVAGERAWRAAQRAGLKTVPIMVRELDDLAVLEIGIIENVQRADLNVLEEALSYKVLMEKFERTQENIAQTIGKSXSHVANXMRLLXLPDEVQSYLVSGELTAXHARAIAAAADPVALAKQIIEGGLSVRETEALARKAPNLSAGKSKGGRPPRVKDTDTQALESDLSSVLGLDVSIDHRGSTGTLTITYATLEQLDDLCNRLTRGI

In this experiment the parent is B1. Nature of the experiment: one-hybrid fitness for binding NBS DNA (the Noc-binding site; scaled: cognate 1, non-cognate 0); higher = stronger binding. To be noted: with NBS DNA site. In a few lines:
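Fitness here means the log change in variant-to-wild-type read ratio between plasmids sequenced before and after selection. That scale was set so cognate equals 1 and non-cognate equals 0. The selection was a bacterial one-hybrid screen of Caulobacter ParB libraries, four specificity codons randomised, in E. coli USO carrying a HIS3 reporter with the site 19 bp from the promoter, grown 48 hours at 37°C on M9-minus-histidine with 0.1 mM IPTG and 5 mM 3-AT.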
Turning to KVGT, the “one-hybrid fitness for binding NBS DNA” value is no more than 0.2. The figure for VDCY is no more than 0.2. In the case of GYSD, the “one-hybrid fitness for binding NBS DNA” value is no more than 0.2. Regarding WLIM, the “one-hybrid fitness for binding NBS DNA” value was no more than 0.2. As for TGHY, the figure is no more than 0.2; as for YLKI, no more than 0.2; as for GALW, no more than 0.2.

In the case of EYSA, the “one-hybrid fitness for binding NBS DNA” value was no more than 0.2. In the case of DATM, the “one-hybrid fitness for binding NBS DNA” value was no more than 0.2. For the variant EPKR, the “one-hybrid fitness for binding NBS DNA” value is no more than 0.2.

With KQKV, the “one-hybrid fitness for binding NBS DNA” value was no more than 0.2. In the case of KRDS, the “one-hybrid fitness for binding NBS DNA” value was found to be 0.28. On to KLLG, for which the “one-hybrid fitness for binding NBS DNA” value is no more than 0.2.

IFGG: the “one-hybrid fitness for binding NBS DNA” value was no more than 0.2. As for KSLI, the figure is no more than 0.2; as for HTRS, no more than 0.2; as for PVTR, no more than 0.2. LSCV: the “one-hybrid fitness for binding NBS DNA” value is no more than 0.2. In the case of VSPN, the “one-hybrid fitness for binding NBS DNA” value is no more than 0.2.

With NNEC, the “one-hybrid fitness for binding NBS DNA” value was no more than 0.2. On to HTER, for which the “one-hybrid fitness for binding NBS DNA” value is no more than 0.2.

For the variant KLRF, the “one-hybrid fitness for binding NBS DNA” value was no more than 0.2. As for KVIG, the figure is no more than 0.2; as for CFVS, no more than 0.2; as for PIQM, no more than 0.2. EGPK: the “one-hybrid fitness for binding NBS DNA” value is no more than 0.2.

For the variant CMSC, the “one-hybrid fitness for binding NBS DNA” value was no more than 0.2. Turning to TSNL, the “one-hybrid fitness for binding NBS DNA” value was no more than 0.2. For IPSV, the “one-hybrid fitness for binding NBS DNA” value was no more than 0.2. Take MLYP: the “one-hybrid fitness for binding NBS DNA” value was no more than 0.2. In the case of QYLW, the “one-hybrid fitness for binding NBS DNA” value was no more than 0.2. The figure for VTYY is no more than 0.2; for WFES it is no more than 0.2; for VYDY it is no more than 0.2. Consider LTQF, for which the “one-hybrid fitness for binding NBS DNA” value was no more than 0.2.

Consider LWAT, for which the “one-hybrid fitness for binding NBS DNA” value is no more than 0.2.

For RVDA, the “one-hybrid fitness for binding NBS DNA” value is no more than 0.2. The figure for PYCC is no more than 0.2; for RQKK it is 0.237; for VQQS it is no more than 0.2.

With GARM, the “one-hybrid fitness for binding NBS DNA” value is no more than 0.2. The figure for SAIS is no more than 0.2. The figure for ASWL is no more than 0.2; for WFNN it is no more than 0.2.

For DTAC, the “one-hybrid fitness for binding NBS DNA” value was no more than 0.2. For the variant RFHK, the “one-hybrid fitness for binding NBS DNA” value is no more than 0.2. The figure for ELNR is no more than 0.2. The figure for RVAY is no more than 0.2; for LVTY it is no more than 0.2. Regarding DYQR, the “one-hybrid fitness for binding NBS DNA” value is no more than 0.2.

As for MRLA, the “one-hybrid fitness for binding NBS DNA” value was no more than 0.2.

As for MFCN, the “one-hybrid fitness for binding NBS DNA” value was no more than 0.2. As for VTGC, the figure is no more than 0.2. As for HMGG, the figure is no more than 0.2; as for QWNC, no more than 0.2. RNAS: the “one-hybrid fitness for binding NBS DNA” value was 0.221. Take CGAC: the “one-hybrid fitness for binding NBS DNA” value was no more than 0.2.

Turning to PESR, the “one-hybrid fitness for binding NBS DNA” value was no more than 0.2. Regarding AEKL, the “one-hybrid fitness for binding NBS DNA” value was no more than 0.2. NASG: the “one-hybrid fitness for binding NBS DNA” value was no more than 0.2. Regarding HNHR, the “one-hybrid fitness for binding NBS DNA” value was no more than 0.2.

In the case of ERIC, the “one-hybrid fitness for binding NBS DNA” value is no more than 0.2. For the variant TEHS, the “one-hybrid fitness for binding NBS DNA” value is no more than 0.2.

With TGIV, the “one-hybrid fitness for binding NBS DNA” value is no more than 0.2.

With NTCV, the “one-hybrid fitness for binding NBS DNA” value was no more than 0.2.

In the case of RMFT, the “one-hybrid fitness for binding NBS DNA” value turned out to be 0.261. ANTY: the “one-hybrid fitness for binding NBS DNA” value was no more than 0.2. For TVAQ, the “one-hybrid fitness for binding NBS DNA” value was no more than 0.2. For SMPG, the “one-hybrid fitness for binding NBS DNA” value was no more than 0.2. As for MQST, the figure is no more than 0.2; as for GGGM, no more than 0.2; as for VRNK, no more than 0.2. Regarding AHPF, the “one-hybrid fitness for binding NBS DNA” value is no more than 0.2. For the variant DTSP, the “one-hybrid fitness for binding NBS DNA” value is no more than 0.2. As for HEVT, the figure is no more than 0.2; as for CYGA, no more than 0.2.
